Measurements from US20210032308A1 (published 2021).
Read-outs that look alike come from different tables or passages of the source.

T1: recombinant human CD2 (biotinylated) (UniProt P06729 25-209, biotinylated (site not stated))
T1 chain: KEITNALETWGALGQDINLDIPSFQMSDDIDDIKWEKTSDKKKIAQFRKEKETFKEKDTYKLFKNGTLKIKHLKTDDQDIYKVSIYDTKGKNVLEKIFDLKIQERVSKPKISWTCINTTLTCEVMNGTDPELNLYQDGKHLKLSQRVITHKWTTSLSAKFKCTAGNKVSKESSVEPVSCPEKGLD

T2: recombinant cynomolgus CD2 (cynomolgus monkey, UniProt Q6SZ61 25-209, biotinylated (site not stated))
T2 chain: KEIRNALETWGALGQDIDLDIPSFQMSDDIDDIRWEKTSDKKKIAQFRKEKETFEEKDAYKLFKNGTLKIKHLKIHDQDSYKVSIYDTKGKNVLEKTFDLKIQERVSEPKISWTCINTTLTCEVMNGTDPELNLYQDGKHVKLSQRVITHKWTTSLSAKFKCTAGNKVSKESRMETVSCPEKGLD


Legend:
Experiment in all cases: SPR
[1] = target: T1, recombinant human CD2 (biotinylated)
[2] = target: T1, recombinant human CD2 (biotinylated)
[3] = target: T1, recombinant human CD2 (biotinylated)
[4] = target: T2, recombinant cynomolgus CD2

| Kd [1] [nM] | Kd [2] [nM] | Kd [3] [nM] | Kd [4] [nM] | Binder |
| --- | --- | --- | --- | --- |
| 730 | 730 |  |  | M1d1 LFA3-Fc fusion protein (Fc fusion) FSQQIYGVVYGNVTFHVPSNVPLKEVLWKKQKDKVVEFENSEVRAFSSFKNRVYLDTVSGSLTIYNLTSSDEDEYEMESPNITDTFKFFLYVL[human IgG1 Fc not shown] |
|  |  | 1040 | 1080 | M1-d3 Fc fusion protein (Fc fusion) FSQQIYGVVYGNVTFHVPSNVPLKEVLWKKQKDKVVEFENSEVRAFSSFKNRVYLDTVSGSLTIYNLTSSDEDEYEMESPNITDTFKFFLYVLESLPS[human IgG1 Fc not shown] |
